# Measurements reported in PMC4336329 (PLoS ONE, 2015).
# Hit rate of the full screen: of about 310,000 compounds, about 14,000 (4.5%) showed an effect of 50% or more. The effect is printed as a negative number. This is one part of the list. Where a SMILES comes first, the peptide text is derived from it. The star is where a group is joined. Bz = O=C(c1ccccc1)*
# Target: human ether-à-go-go-related gene (hERG) potassium channel (human, UniProt Q12809)
# Experiment: primary screen, population patch clamp on CHO cells stably expressing hERG
# 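Note: peak tail current of the secondary pulse compared with the same well before compound.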
# Sequence of human ether-à-go-go-related gene (hERG) potassium channel (Q12809 whole entry, looked up): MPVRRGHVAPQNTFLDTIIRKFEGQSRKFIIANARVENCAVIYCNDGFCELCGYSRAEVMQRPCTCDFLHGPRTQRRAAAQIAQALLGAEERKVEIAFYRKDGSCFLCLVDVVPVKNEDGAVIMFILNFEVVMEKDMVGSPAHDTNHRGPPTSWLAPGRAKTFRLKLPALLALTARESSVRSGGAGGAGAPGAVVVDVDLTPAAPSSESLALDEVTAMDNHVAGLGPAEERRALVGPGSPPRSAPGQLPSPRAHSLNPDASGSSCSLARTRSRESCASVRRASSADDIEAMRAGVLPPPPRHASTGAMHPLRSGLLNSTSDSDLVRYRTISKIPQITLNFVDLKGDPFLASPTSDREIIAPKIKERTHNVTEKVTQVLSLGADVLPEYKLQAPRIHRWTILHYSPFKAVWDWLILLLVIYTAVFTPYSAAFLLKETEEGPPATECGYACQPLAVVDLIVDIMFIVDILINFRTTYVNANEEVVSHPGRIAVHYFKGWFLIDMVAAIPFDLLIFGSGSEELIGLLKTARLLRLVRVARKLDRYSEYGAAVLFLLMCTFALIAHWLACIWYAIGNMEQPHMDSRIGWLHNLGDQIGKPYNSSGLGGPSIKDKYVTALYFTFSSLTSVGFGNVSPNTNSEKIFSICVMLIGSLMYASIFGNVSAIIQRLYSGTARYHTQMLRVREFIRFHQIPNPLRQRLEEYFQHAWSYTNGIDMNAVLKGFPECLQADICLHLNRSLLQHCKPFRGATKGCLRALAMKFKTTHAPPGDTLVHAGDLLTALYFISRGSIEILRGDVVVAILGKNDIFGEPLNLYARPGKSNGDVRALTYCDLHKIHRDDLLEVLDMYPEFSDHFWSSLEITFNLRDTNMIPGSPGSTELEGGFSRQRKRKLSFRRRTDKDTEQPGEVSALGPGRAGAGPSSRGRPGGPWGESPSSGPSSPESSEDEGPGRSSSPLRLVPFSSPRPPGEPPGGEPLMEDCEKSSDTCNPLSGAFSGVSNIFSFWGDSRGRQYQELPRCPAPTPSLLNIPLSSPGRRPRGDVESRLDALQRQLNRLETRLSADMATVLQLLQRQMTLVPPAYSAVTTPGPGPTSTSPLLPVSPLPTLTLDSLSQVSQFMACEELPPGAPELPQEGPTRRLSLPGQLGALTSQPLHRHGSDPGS
row,SMILES,"hERG current change (%, negative = inhibition) at 10uM"
1,O=C(CCNC(=O)c1ccccc1Cl)Nc1cccc(S(=O)(=O)N2CCOCC2)c1,0.307%
2,COc1ccc2c(c1)S/C(=C\C(=O)c1ccncc1)N2C,-26.3%
3,O=C(COc1cc(F)ccc1[N+](=O)[O-])N1N=C(c2cccs2)CC1c1ccco1 (centres unmarked),-16.4%
4,Cc1ccc(NC(=O)C(C)Sc2nc(-c3ccccc3)cc(=O)[nH]2)cc1 (centres unmarked),20.8%
5,Cc1cccnc1NC(=O)CNC(=O)C1CCCCC1,10.5%
6,CCCCCOC(=O)c1ccc(N2C(=O)C3C4C=CC(C4)C3C2=O)cc1 (centres unmarked),-6.84%
7,Cc1ccc(Cn2c(SCC(=O)N3CC(=O)Nc4ccccc43)nc3ccccc3c2=O)cc1,11.7%
8,CCOC(=O)Cc1c[nH]c2ccccc12,11.9%
9,Oc1ccc(Cl)cc1N=Cc1sc2ccccc2c1Cl,15.5%
10,Clc1ccc(-c2nnc(SCc3nc4ccccc4s3)o2)cc1,-9.91%
11,Cc1nc2nc(SCC(=O)NCCCN3CCOCC3)nn2c(C)c1Cc1ccccc1,14.6%
12,CC(C)Cc1nc2c(nnn2Cc2ccccc2F)c(=O)[nH]1,-38.9%
13,O=C1N=C(N2CCCCC2)S/C1=C\c1cn[nH]c1-c1ccccc1,0.799%
14,CCCCCN(C(=O)CCC(=O)OC(C)C(=O)c1ccccc1)c1c(N)n(CCCC)c(=O)[nH]c1=O (centres unmarked),-12.2%
15,Cn1nc(-c2ccccc2)c(CSc2ccccc2Cl)c1Cl,6.46%
16,O=C(c1ccc(S(=O)(=O)N2CCOCC2)cc1)N1CCN=C1SCc1cccnc1,6.5%
17,Cl.Oc1cccc(Nc2nc(-c3ccccc3Cl)nc3ccccc23)c1,7.09%
18,C/C=C(\C)CN1CCN(c2cccc(C)c2C)CC1,-3.49%
19,O=C(Cn1ccc2ccccc2c1=O)NCC(=O)N1CCN(c2ccccc2F)CC1,26%

row,SMILES,"hERG current change (%, negative = inhibition) at 10uM"
1,C=C(c1ccccc1)c1ccc(N(C)C)cc1,13.1%
2,COc1ccc(OC)c(S(=O)(=O)N2CCN(c3ncccn3)CC2)c1,-10.6%
3,O=C(NCCCN1CCCC1=O)NC12CC3CC(CC(C3)C1)C2,10.2%
4,COc1ccc(C(=O)CN2C(=O)COc3ccccc32)cc1,-15%
5,O=C(Nc1nnc(-c2ccc(Br)cc2)o1)c1cccc(N2C(=O)CCC2=O)c1,13.4%
6,O=C(CN1CCc2ccccc21)Nc1ccc2c(c1)OCCCO2,-15.9%
7,O=C(O)c1ccc(S(=O)(=O)N(Cc2ccc(F)cc2)C2CCCCC2)cc1,13.9%
8,Cc1cc(C)cc(C(=O)NCC(=O)OCC(=O)N2CCCCC2)c1,1.04%
9,COc1cccc(CNC(=O)c2ccccc2-c2ccccc2)c1,17.2%
10,CSc1ccccc1N1CCN(C(=O)Nc2ccc3c(c2)NC(=O)CO3)CC1,-56.3%
11,O=C(NC(Cc1ccccc1)C(=O)N1CCCC1C(=O)O)c1ccccc1 (stereo not drawn) (Bz-Phe-Pro-OH; configuration not given here),9.07%
12,COC(=O)/C(C#N)=C/c1ccc(OC(=O)c2ccccn2)cc1,-6.28%
13,CSc1ccc(S(=O)(=O)Nc2c(C)cccc2C)cc1,3.04%
14,O=C(Nc1ccccc1)c1cc(S(=O)(=O)N2CCOCC2)cs1,-17.5%
15,O=C(O)C(Cc1ccc(Cl)cc1)Sc1nc2ccccc2[nH]1 (centres unmarked),20.3%
16,CCOC(=O)Cc1nnc(NC(=O)C(CC)Sc2nnc3c4ccccc4n(C)c3n2)s1 (centres unmarked),-11.1%
17,COC(=O)c1nnn(-c2nonc2N)c1CSc1ccc(Cl)cc1,3.92%
18,CSc1ccc(C(c2c(O)c3ccccc3oc2=O)c2c(C)n(C)n(-c3ccccc3)c2=O)cc1 (centres unmarked),-12.9%
19,O=C1c2cccc3cccc(c23)C(=O)N1CCN1CCN(C(=S)Nc2ccccc2)CC1,-13.1%

row,SMILES,"hERG current change (%, negative = inhibition) at 10uM"
1,Cc1nc(SCc2ccc(Br)cc2)[nH]c(=O)c1C,13.7%
2,Cc1ccc(/C=C/C(=O)Nc2cc(S(=O)(=O)N3CCOCC3)ccc2N2CCOCC2)cc1,-43.2%
3,Clc1ccc(-c2nsc(N3CCOCC3)n2)c(Cl)c1,4.34%
4,COc1cccc(C2(O)CCN(Cc3ccncc3)CC2)c1,7.55%
5,O=C(CN(Cc1ccccc1F)C(=O)Cn1nnc(-c2cccs2)n1)NC1CCCCC1,4.32%
6,COc1ccccc1Cc1nnnn1CC(=O)O,5.77%
7,Cc1cc(N2CCCCC2)nc(SCc2ccc(C#N)cc2)n1,-31.1%
8,O=C(NCCCn1ccnc1)c1cc2c(s1)CCCCC2,-18.5%
9,COc1cc(NC(=S)Nc2ccc3c(c2)OCCO3)cc(OC)c1OC,7.33%
10,N#CC1(c2ccccc2)CCC(NCCc2ccccc2)CC1.O=C(O)C(=O)O (centres unmarked),-69.5%
11,CSC1=N/C(=C\c2ccc(F)cc2)C(=O)S1,-5.08%
12,Cc1nc(SCC(=O)NCCc2ccc(Cl)cc2)nc(C)c1C,-9.64%
13,Cc1[nH]nc(-c2ccc(OCc3cnn(-c4ccccc4)c3)c(C)c2O)c1Oc1ccccc1,12%
14,Cn1c(=O)[nH]c(=O)c2c1nc(N1CCCCCC1)n2CCN1CCCCCC1,-30.6%
15,CN1CCN(C(=O)C2CC(c3ccc(F)cc3)=NO2)CC1 (centres unmarked),3.31%
16,CC(=O)Nc1ccc(NC(=O)Cn2c(CC(=O)N3CCCC3)nc3ccccc32)cc1,9%
17,CCc1ccc(CN2C(=O)c3ccccc3C2C(=O)NCc2cccnc2)cc1 (centres unmarked),-19.5%
18,O=C(Nc1ncc([N+](=O)[O-])s1)C1COc2ccccc2O1 (centres unmarked),17.5%
